Results taken from PubChem BioAssay AID1508623 (National Center for Advancing Translational Sciences (NCATS), 2021).
Hit rate of the full screen: of about 48,000 compounds, about 450 (0.94%) were called active. Not shown: some 19% with an inconclusive outcome. The call rests on the fitted dose curve; in most records, active means well fitted inhibition curve with a large enough effect; inconclusive means small, poorly fitted or top-dose-only effect; inactive means no such curve, though single readings can be large or run the other way. Some of the results follow.

Assay: Primary qHTS for Identification of Small Molecule Inhibitors of Huntingtin Promoter Activity; further: nearly all actives have a fitted effect of over 50% in size
Details: HEK293 HTT promoter firefly luciferase reporter (activity 0% = vehicle and -100% = no light), 24 h; series mostly up to 57.5 µM; activity change, negative = inhibition: at the top concentration
Outline: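 Firefly luciferase readout (Dual-Glo, 10 min RT) after 24 h, 37 °C compound exposure (final up to 57.5 uM) of HEK293 reporter cells cultured 24 h beforehand; PTC124 at 50 uM final as control inhibitor; activity scaled vehicle 0%, zero RLU -100%.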
Potency means the concentration at half of the fitted maximal effect.

SMILES	activity change, negative = inhibition	Potency
Cc1cccc(C)c1NC(=O)NCCCN1CCN(c2ccccc2)CC1	inactive: -9.7%	–
CCc1ccccc1NC(=O)CC(C)S(=O)(=O)c1ccc2c(c1)NC(=O)CO2 (configuration not stated)	inactive: -8.37%	–
CCc1ccc2occ(CC(=O)Nc3nnc(C)s3)c2c1	inactive: -7.73%	–
CCNC(=O)C1CCN(c2nc3ccccc3nc2C(F)(F)F)CC1	inactive: -3.54%	–
O=C(CSc1nc2c([nH]c3ccccc32)c(=O)n1-c1ccccc1)NCc1ccc(F)cc1	inactive: -25.5%	–
O=C(CN1C(=O)C2(SCC(=O)N2c2ccccc2)c2ccccc21)Nc1ccccc1C(F)(F)F (configuration not stated)	inactive: -17.5%	–
CC(=O)c1nn(-c2ccc(OC(F)(F)F)cc2)nc1Nc1ccc(Cl)cc1	inactive: 2.12%	–
CCOc1ccc(NC(=O)Cn2cc(S(=O)(=O)c3ccc(C)cc3)c(=O)c3cc(F)ccc32)cc1	inactive: -21%	–
COc1ccc(S(=O)(=O)N2CCC(C(=O)NC(C)c3ccccc3)CC2)cc1 (configuration not stated)	inactive: -19.6%	–
Cc1ccc(CN2C(=O)C(O)(CC(=O)c3ccc(C)cc3)c3ccccc32)cc1 (configuration not stated)	inactive: -19.8%	–
O=C(Nc1ccc(Br)cc1)c1cc2nc(-c3ccccc3)cc(-c3ccccc3)n2n1	inactive: -2.04%	–
COc1ccc2[nH]cc(CCN=C(NC(=O)c3cccc(Cl)c3)Nc3nc(C)cc(C)n3)c2c1	inactive: -29.2%	–
Cc1nc2sccn2c(=O)c1S(=O)(=O)Nc1ccc(N2CCN(C)CC2)cc1	inactive: -15.6%	–
COc1cc2c(cc1OC)-c1cc(=Nc3c(C)cc(C)cc3C)n(C)c(=O)n1CC2	inactive: 4.11%	–
COc1cc(OC)c(NC(=O)NCCn2nnc3cc(S(=O)(=O)N(C)C)ccc32)cc1Cl	inactive: -10.1%	–
COc1ccc(-c2nn3c(=O)cc(CN4CCN(C(=O)Nc5cc(C)ccc5C)CC4)nc3s2)cc1	inactive: -18.4%	–
CCCCNc1ccc(C(=O)OCCN(CC)CC)cc1	inactive: -1.87%	–
Cc1cccc(N2CCN(C(=O)c3sc4nc5n(c(=O)c4c3C)CCC5)CC2C)c1 (configuration not stated)	inactive: -12.8%	–
CCCCSCCCNC(=O)C1CCN(Cc2nc(-c3ccc(CC)cc3)oc2C)CC1	inactive: -7.25%	–
CCOC(=O)c1c(C)[nH]c(C)c1S(=O)(=O)N1CCC(C(=O)NCc2ccc(F)cc2)CC1	inactive: -22.2%	–
COc1ccc(-c2c(C#N)c(SCC(=O)Nc3ccc(C)c(C)c3)nc(C)c2C(=O)Nc2ccc(Cl)cc2)cc1	inactive: -27.4%	–
O=c1[nH]c(SCc2ccccc2)nc2c1CCCC2	inactive: -10.4%	–
CC(C)(C)C1CCc2nc(NC(=O)c3cccc(Cl)c3)sc2C1 (configuration not stated)	–	active: 355 nM
COC(=O)c1ccc(OCC2c3cc(OC)c(OC)cc3CCN2C(=O)c2ccc(OC)cc2)cc1 (configuration not stated)	inactive: -26.9%	–

SMILES	activity change, negative = inhibition	Potency
COc1cc(OC)c(NC(=O)Cc2c(C(=O)O)c(C)cn2C)cc1Cl	inactive: -19.4%	–
COc1ccc(NC(=O)C2=C(C)Nc3ncnn3C2c2sccc2C)cc1 (configuration not stated)	inactive: -11.2%	–
CC(=O)N1CCCC1c1nc2ccccc2n1Cc1c(F)cccc1Cl (configuration not stated)	inactive: -10.8%	–
CCc1ccc(OCC(=O)Nc2ccc(S(=O)(=O)Nc3onc(C)c3C)cc2)cc1	inactive: 14.2%	–
Cc1ccc2oc(=O)n(CCNC(=O)Nc3ccccc3C)c2c1	inactive: -7.47%	–
Cc1ccc(CNC(=O)Cc2c(C(=O)O)c(C)cn2C)cc1	inactive: -4.57%	–
CCCCn1c(=O)c2oc3ccccc3c2n(CC(=O)Nc2cc(C)ccc2C)c1=O	inactive: -12.9%	–
Cc1ccccc1NC(=O)Nc1csc2c1CCCC2	inactive: 6.72%	–
COc1ccc(C(=O)CSc2nc3cc(C(=O)NC4CCCC4)ccc3c(=O)n2CC2CCCO2)cc1 (configuration not stated)	inactive: -7.6%	–
CCOc1ccc(CN2C(=O)c3ccccc3Sc3ccc(C(=O)NCc4ccc5c(c4)OCO5)cc32)cc1	inactive: -24.1%	–
COc1ccc(C)cc1NC(=O)C(NS(=O)(=O)c1cccs1)c1ccccc1 (configuration not stated)	inactive: -25%	–
Cc1cccc(C(=O)N2CCNC(=O)C2CC(=O)Nc2ccc(F)cc2)c1 (configuration not stated)	inactive: -8.13%	–
Cc1cccc(NC(=O)Cn2c(=O)n(CCc3ccccc3)c(=O)c3ccccc32)c1	inactive: -2.4%	–
COc1ccc(C2C(C(=O)Nc3ccccc3)=C(C)Nc3nc(-c4ccccc4)nn32)c(OC)c1 (configuration not stated)	inactive: -17.7%	–
CCCOc1cccc(C(=O)Nc2cc(-c3nc4ccccc4[nH]3)ccc2C)c1	inactive: -23.5%	–
COc1cc(OC)c(NC(=O)c2sc3nc4n(c(=O)c3c2C)CCCC4)cc1Cl	inactive: 9.24%	–
CCOc1cc(Cn2c(-c3ccc(O)c(OCC)c3)nc3ccccc32)ccc1O	inactive: -8.31%	–
Cc1cc(C)cc(NC(=O)c2nnn(Cc3cccc(Br)c3)c2N)c1	inactive: -28.2%	–
CCCCC(=O)N1CC(=O)Nc2ccc(F)cc2C1c1ccc(F)cc1 (configuration not stated)	inactive: -18.7%	–
CCn1c(CNC(=O)C23CC4CC(CC(C4)C2)C3)nnc1SCC(=O)Nc1ccc(C)cc1	inactive: -32%	–
Cc1ccc(S(=O)Cc2ccc(C(=O)NCc3ccc(OC(C)C)cc3)o2)cc1 (configuration not stated)	inactive: -18.9%	–
Cc1nc2c3cccnc3nn2c(C)c1CCC(=O)NCc1ccccc1Cl	inactive: -15.2%	–
Cc1ccc2c(Sc3ccccc3)c(C(=O)NCc3ccccc3F)[nH]c2c1	inactive: 16.5%	–
